# Laboratory results reported in PMC4336329 (PLoS ONE, 2015).
# Out of some 310,000 compounds screened, about 2,200 (0.71%) showed an effect of 50% or more. The effect is printed as a negative number. The list shows a part of the results.
# Biological target: human ether-à-go-go-related gene (hERG) potassium channel (human, UniProt Q12809)
# Experiment: primary screen, population patch clamp on CHO cells stably expressing hERG
# human ether-à-go-go-related gene (hERG) potassium channel, sequence (Q12809 whole entry, looked up): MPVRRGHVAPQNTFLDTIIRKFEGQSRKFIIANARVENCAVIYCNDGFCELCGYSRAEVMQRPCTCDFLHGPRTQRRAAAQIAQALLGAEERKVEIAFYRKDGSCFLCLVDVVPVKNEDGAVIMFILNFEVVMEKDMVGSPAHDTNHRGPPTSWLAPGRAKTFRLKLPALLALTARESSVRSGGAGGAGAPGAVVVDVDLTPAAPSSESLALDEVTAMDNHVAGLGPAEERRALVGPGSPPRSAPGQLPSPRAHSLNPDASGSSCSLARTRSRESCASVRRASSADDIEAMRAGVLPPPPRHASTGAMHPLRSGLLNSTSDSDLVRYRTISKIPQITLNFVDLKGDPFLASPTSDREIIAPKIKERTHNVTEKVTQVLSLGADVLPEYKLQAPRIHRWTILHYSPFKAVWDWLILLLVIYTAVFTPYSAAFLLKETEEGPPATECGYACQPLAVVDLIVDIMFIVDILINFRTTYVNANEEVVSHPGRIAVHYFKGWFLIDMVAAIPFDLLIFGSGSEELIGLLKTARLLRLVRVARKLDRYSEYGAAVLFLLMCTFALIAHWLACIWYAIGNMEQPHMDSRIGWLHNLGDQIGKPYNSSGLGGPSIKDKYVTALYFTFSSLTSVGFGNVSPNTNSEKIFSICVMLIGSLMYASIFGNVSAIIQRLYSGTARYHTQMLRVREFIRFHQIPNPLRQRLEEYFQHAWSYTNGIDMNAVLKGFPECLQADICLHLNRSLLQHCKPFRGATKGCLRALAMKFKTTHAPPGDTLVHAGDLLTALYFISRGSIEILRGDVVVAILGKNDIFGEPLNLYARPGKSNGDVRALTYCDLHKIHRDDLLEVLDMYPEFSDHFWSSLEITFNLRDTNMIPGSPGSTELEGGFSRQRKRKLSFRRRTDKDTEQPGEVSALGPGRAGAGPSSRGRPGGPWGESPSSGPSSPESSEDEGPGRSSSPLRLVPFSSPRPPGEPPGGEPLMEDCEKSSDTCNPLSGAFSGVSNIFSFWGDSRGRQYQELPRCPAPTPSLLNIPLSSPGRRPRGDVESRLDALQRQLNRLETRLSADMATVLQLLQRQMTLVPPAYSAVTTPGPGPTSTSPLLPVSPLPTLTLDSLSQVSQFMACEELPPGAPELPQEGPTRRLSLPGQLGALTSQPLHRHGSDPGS
row,Structure (SMILES),"hERG current change (%, negative = inhibition) at 1uM [%]"
1,CC1CCC(NC(=O)CNC(=O)c2ccc3ccccc3c2)CC1 (stereo not shown),21.1
2,O=C(CN1CCN(Cc2ccc3c(c2)OCO3)CC1)Nc1cc(S(=O)(=O)N2CCCC2)ccc1Cl,0.0396
3,COc1ccc(OCc2cccc(C(=O)Nn3cc([N+](=O)[O-])cn3)c2)cc1,-8.38
4,Cc1c(NC(=O)OCCNC(=O)COc2ccc(Cl)cc2Cl)sc(=S)n1C,7.93
5,Cc1cc(C)c(C#N)c(Nc2ccccc2F)n1,11.5
6,Cc1ccc(C(=O)OCC(=O)NCC2COc3ccccc3O2)cc1 (stereo not shown),16.1
7,CCn1cc(C(=O)O)c(=O)c2cc(F)c(N3CCN(S(=O)(=O)c4ccc(Br)cc4)CC3)cc21,2.28
8,CC(C)Cc1cc(C(=O)N2CCN(C(c3ccccc3)c3ccccc3)CC2)no1,4.13
9,Cc1ccc(C)c(OCc2nnc(SCC(=O)NCc3ccc4c(c3)OCO4)o2)c1,6.55
10,O=C(NCc1ccccc1)c1ccc(=O)oc1,4.23
11,NC(=O)CSc1oc(-c2ccco2)nc1S(=O)(=O)c1ccc(Cl)cc1,-1.6
12,COc1ccc(OC)c(/C=N/NC(=O)C(=O)NCc2cccnc2)c1,15.8
13,O=C(Nc1ccccc1C(F)(F)F)c1cc(-c2ccccc2O)on1,14.3
14,Cc1ccc(NC(=O)CN(C)S(=O)(=O)c2cccc3cccnc23)cc1F,8.58
15,CCN1/C(=C2\C(=O)N(c3ccccc3)N=C2C)C=Cc2cc(C)ccc21,-1.41
16,CC(=O)c1c(CSc2ccccc2)oc2ccc(O)c(CN(C)C)c12.Cl,-8.75
17,O=c1ccc(C(F)(F)F)cn1Cc1cc(=O)n2ccsc2n1,14.8
18,COc1ccc(C(=O)NCC(=O)OCC(=O)Nc2c(C)n(C)n(-c3ccccc3)c2=O)cc1,7.05
19,CC(C)CNC(=O)c1ccccc1NC(=O)Nc1ccccc1,13.6
20,CCNC(=O)C/C(C)=N/NC(=O)C(=O)Nc1ccc(CC)cc1,8.09
21,O=C(CN1C(=O)C2CC=CCC2C1=O)Nc1nnc(SCc2c(Cl)cccc2Cl)s1 (stereo not shown),11.3
22,O=C(Nc1ccsc1C(=O)O)c1cccc(Oc2ccccc2)c1,8.51

row,Structure (SMILES),"hERG current change (%, negative = inhibition) at 1uM [%]"
1,O=C(c1cc(-c2ccccc2Cl)nc2ccccc12)N1CCN(c2ccccc2O)CC1,6.78
2,CCC(C)NC(=O)CN1C(=O)NC2(CCOc3ccccc32)C1=O (stereo not shown),1.53
3,CCC(=O)Nc1ccc2c(c1)nc(CCN1CCN(c3ccccn3)CC1)n2C,4.59
4,CSC(=CC(=O)c1ccc(F)cc1)SC,5.16
5,CC(=O)COC(=O)C1CCN(S(=O)(=O)c2cc([N+](=O)[O-])ccc2Cl)CC1,-10.6
6,COCCNC(=O)CN(c1ccc(OC)c(OC)c1)S(=O)(=O)c1ccc(C)cc1,1.92
7,CC(=O)C1C(c2ccc(C)cc2)c2c(noc2C)CC1(C)O (stereo not shown),12.7
8,Cc1nn(-c2ccccc2)c(C)c1CCC(=O)O,13.3
9,O=C(O)c1cccc2c1C(=O)N(CC1CCCO1)C2 (stereo not shown),21.4
10,COCCCn1c(SCc2nnc(-c3ccc(OC)c(OC)c3)o2)nc2ccccc2c1=O,-2.02
11,CC(C)[N+](C)(C)CC(O)CN(c1ccccc1)c1ccccc1.[I-] (stereo not shown),-1.75
12,O=C(c1cc(-c2ccco2)nn1-c1cccc(Cl)c1)N1CCCCC1,-2.12
13,Cc1c(C2=CCN(S(=O)(=O)c3ccc(Cl)cc3)CC2)c2ccccc2n1C,22.4
14,COc1cccc(NC(=O)CSc2nnc(-c3cccs3)n2C)c1,7.61
15,CCOCCCNC(=O)C(c1ccc(C)cc1)N(Cc1ccc2c(c1)OCO2)C(=O)c1cnccn1 (stereo not shown),12.7
16,COc1cc2c(cc1OC)CN(C(=O)C1CCN(S(=O)(=O)c3ccccc3F)CC1)CC2,8.26
17,Cc1cc(C)n(-c2ccc(C(=O)OCC(=O)N(CC(C)C)C3CCS(=O)(=O)C3)cc2)n1 (stereo not shown),10.9
18,CCN(C(=O)COC(=O)CNC(=O)c1ccc(C)c(C)c1)C1CCS(=O)(=O)C1 (stereo not shown),-0.46
19,Cc1ccc(C)c(OCCCN2CCc3ccccc3C2)c1.Cl,9.39
20,O=C(O)c1ccc(-c2ccccc2Cl)o1,8.92
21,COc1ccccc1CN(C(=O)c1cnccn1)C(C(=O)NC1CCCCC1)c1cc(OC)c(OC)c(OC)c1 (stereo not shown),19.3
22,CC(C)C(=O)NS(=O)(=O)c1ccc(NS(C)(=O)=O)cc1,8

row,Structure (SMILES),"hERG current change (%, negative = inhibition) at 1uM [%]"
1,CCN(CC)C(=O)Cn1nc(-c2ccc(Cl)cc2)c2ccccc2c1=O,-5.61
2,CCC(NC(=O)c1ccccc1NC(=O)c1ccccc1)C(=O)O (stereo not shown),7.84
3,CC(C)C[C@H](NC(=O)Nc1ccccc1F)C(=O)O,-1.14
4,CCOc1ncccc1C(=O)OCC(=O)N1CCN(S(=O)(=O)c2ccccc2)CC1,9.36
5,CC(C)c1ccc(NC(=O)C2C3C=CC4(CN(CCCN5CCOCC5)C(=O)C24)O3)cc1 (stereo not shown),0.84
6,COc1cccc(CNC(=O)C(=O)NCC2OCCCN2S(=O)(=O)c2cc(C)ccc2C)c1 (stereo not shown),7.64
7,CC(=O)Nc1cc(ON=C(C)C)cc([N+](=O)[O-])c1,11.3
8,Cc1cc(C(=O)OCC(=O)NCCCN2CCCC2=O)c2ccccc2n1,12.4
9,CCOc1ccc(CNc2ccc3c(c2)ncn3C(C)(C)C)cc1,-17.5
10,Nc1ccc(CCc2ccc(N)cc2)cc1,10.7
11,CCCCNC(=O)[C@@H]1CSC2c3ccc(OC)c(OC)c3C(=O)N21 (stereo partly shown),3.63
12,Cl.Nc1ccn([C@@H]2O[C@H](CO)[C@@H](O)[C@@H]2O)c(=O)n1,13.3
13,O=C(c1ccccc1)c1cc2ccccc2oc1=O,10.3
14,COc1ccc(C2C(C#N)=C(/N=C/N3CCN(C)CC3)OC3=C2C(=O)CC(C)(C)C3)cc1 (stereo not shown),-6.72
15,COc1cc(C2C(C#N)=C(N)Oc3cc(C)n(CCN4CCOCC4)c(=O)c32)cc(OC)c1OC (stereo not shown),17.5
16,CC(=O)Nc1ccc(NC2=CC(=O)c3ccccc3C2=O)cc1,8.22
17,COc1ccc(NC(=O)c2cccc3c2C(=O)N(C2CCCCC2)C3)cc1,13.5
18,Cc1ccccc1Nc1nc(N)nc(CSc2ccc(F)cc2)n1,2.31
19,COc1ccc(N2C(=O)CCC(C(=O)N3CCC(C(N)=O)CC3)C2c2ccc(F)cc2)cc1 (stereo not shown),7.27
20,CCc1ccc(Nc2ccc3nonc3c2[N+](=O)[O-])cc1,5.17
21,CC(=O)Nc1cccc(-n2nnc(SCC(N)=O)n2)c1,10.3
22,Cn1c(-c2ccccc2)cnc1SCc1nc2ccccc2c(=O)[nH]1,-38.7

row,Structure (SMILES),"hERG current change (%, negative = inhibition) at 1uM [%]"
1,COc1cccc(C(=O)C2CCCN(CC3=Cc4cc(OC)ccc4OC3)C2)c1 (stereo not shown),-25.9
2,CC1(CCCN2C(=O)c3ccccc3C2=O)OCCO1,12.6
3,COc1ccc(N2CCN(S(=O)(=O)c3cccc4cccnc34)CC2)cc1,-1.29
4,CCOC(=O)c1sc(NC(=O)COc2ncnc3ccccc23)c(C(=O)OCC)c1C,10.8
5,CC(=O)N1CCN=C1SCc1ccccc1,17.9
6,Cc1ccc(C(=O)/C=C/N(C)C)cn1,13.6
7,CC1=C(C)CC(C(=O)Nc2ccc(C(=O)N3CCOCC3)cc2)C(C(=O)O)C1 (stereo not shown),20.6
8,NC(=O)c1cc(S(=O)(=O)NCc2cccc(Br)c2)cs1,10.8
9,CCCn1cc(CN2CCCC(CNC(=O)c3ccc(F)cc3)C2)c(C)n1 (stereo not shown),16.2
10,CCNC(=O)CC1SC(=Nc2ccc(C)cc2)N(CC)C1=O (stereo not shown),14.9
11,COC(C[C@@H]1O[C@@H]1C(=O)[C@H](C)OCc1ccccc1)OC,15.3
12,Cc1cc(-c2ccccc2)nc(Cl)c1C#N,19
13,CCOc1ccc2nc(N3CCCC(C(=O)NC4CCCC4)C3)sc2c1 (stereo not shown),13.7
14,Cn1nc(C(F)(F)F)c(-c2ccccc2)c1NC(=O)CCC(=O)O,11.9
15,Fc1ccc(/C=N/Nc2cc(N3CCOCC3)ncn2)cc1,10.6
16,CCOC(=O)N1CCN(S(=O)(=O)c2cc(Br)cnc2N)CC1,-4.58
17,Cc1csc2nc(CNS(=O)(=O)c3cccnc3)cn12,13
18,Cc1nc2c(=O)n(-c3ccc(F)c(Cl)c3)nc(C)c2s1,12.6
19,CC[n+]1c(/C=C/c2ccc(OC(C)=O)c(OC)c2)ccc2ccccc21.[I-],13.3
20,C[N+]1(CC2COC3(CCCCC3)O2)CCCC1.[I-] (stereo not shown),11.6
21,O=C(COCc1cc(-c2ccc3c(c2)OCO3)on1)N1CCN(c2cccc(Cl)c2)CC1,10.3
22,CCOCCCN(C)C1CCN(C(=O)c2oc3ccccc3c2NC(=O)Cc2ccc([N+](=O)[O-])cc2)CC1,-89.1
